Source: patent US20250270341A1 (Alector, published 2025)
Blank lines part the entries; values can stand above or below the binder they belong to.

What was measured:
Assay in all cases: ELISA, 1 ug/ml
huCD98hc ECD Avi-His = target: T1, huCD98hc ECD Avi-His (human, UniProt P08195 105-529)
T1 construct: biotinylated on the Avi tag where captured on streptavidin; also called Human CD98-AVI-His; Human CD98hc-AVI-His
T1 sequence: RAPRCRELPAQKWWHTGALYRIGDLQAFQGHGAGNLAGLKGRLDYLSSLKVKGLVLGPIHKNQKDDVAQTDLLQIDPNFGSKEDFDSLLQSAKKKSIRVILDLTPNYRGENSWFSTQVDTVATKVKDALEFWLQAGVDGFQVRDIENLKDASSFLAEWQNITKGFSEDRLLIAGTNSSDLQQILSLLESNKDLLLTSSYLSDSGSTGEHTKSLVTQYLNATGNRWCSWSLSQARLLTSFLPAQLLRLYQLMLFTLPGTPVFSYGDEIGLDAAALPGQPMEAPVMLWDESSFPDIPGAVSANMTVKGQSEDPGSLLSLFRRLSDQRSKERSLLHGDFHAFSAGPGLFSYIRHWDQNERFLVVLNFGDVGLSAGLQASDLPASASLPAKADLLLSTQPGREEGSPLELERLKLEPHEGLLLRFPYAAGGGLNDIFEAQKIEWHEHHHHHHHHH

Cyno CD98hc ECD Avi-His = target: T2, Cyno CD98hc ECD Avi-His (cynomolgus macaque, UniProt P08195 105-529 (human entry))
T2 construct: biotinylated on the Avi tag where captured on streptavidin; also called Cyno CD98-AVI-His; Cyno CD98hc-AVI-His
T2 chain: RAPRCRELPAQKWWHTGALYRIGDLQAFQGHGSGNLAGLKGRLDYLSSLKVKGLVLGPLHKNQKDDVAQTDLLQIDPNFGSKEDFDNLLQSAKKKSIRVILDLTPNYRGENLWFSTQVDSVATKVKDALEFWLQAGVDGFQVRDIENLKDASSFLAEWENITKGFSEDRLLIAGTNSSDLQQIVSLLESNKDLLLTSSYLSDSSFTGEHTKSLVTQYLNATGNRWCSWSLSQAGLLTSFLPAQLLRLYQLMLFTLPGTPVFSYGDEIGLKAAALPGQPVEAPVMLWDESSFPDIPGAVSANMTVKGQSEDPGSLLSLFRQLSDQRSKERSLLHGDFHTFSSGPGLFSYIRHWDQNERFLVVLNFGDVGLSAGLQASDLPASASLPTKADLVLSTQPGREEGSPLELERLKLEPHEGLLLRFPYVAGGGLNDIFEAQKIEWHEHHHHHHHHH

muCD98hc ECD Avi-His = target: T3, muCD98hc ECD Avi-His (mouse, UniProt P10852 100-526)
T3 construct: biotinylated on the Avi tag where captured on streptavidin; also called Mouse CD98-AVI-His; Mouse CD98hc-AVI-His
T3 sequence: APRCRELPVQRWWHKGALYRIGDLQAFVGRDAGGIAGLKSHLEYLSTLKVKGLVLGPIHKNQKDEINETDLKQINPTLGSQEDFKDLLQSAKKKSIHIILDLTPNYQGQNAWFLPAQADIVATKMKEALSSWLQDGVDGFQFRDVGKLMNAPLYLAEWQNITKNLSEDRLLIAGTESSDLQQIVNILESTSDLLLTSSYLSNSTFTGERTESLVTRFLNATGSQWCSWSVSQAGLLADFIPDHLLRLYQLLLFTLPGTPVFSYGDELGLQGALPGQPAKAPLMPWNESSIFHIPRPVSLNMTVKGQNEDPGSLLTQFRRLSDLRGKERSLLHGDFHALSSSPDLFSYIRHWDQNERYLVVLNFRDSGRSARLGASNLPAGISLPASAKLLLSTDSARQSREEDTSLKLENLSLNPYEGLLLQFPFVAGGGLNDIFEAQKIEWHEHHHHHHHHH

[1] = target: T4, Human TfR-AVI-His (control) (human, UniProt P02786)
T4 construct: control protein; also called Avi-His-tagged human TfR; human transferrin receptor
T4 sequence (P02786 89-760 limits assumed): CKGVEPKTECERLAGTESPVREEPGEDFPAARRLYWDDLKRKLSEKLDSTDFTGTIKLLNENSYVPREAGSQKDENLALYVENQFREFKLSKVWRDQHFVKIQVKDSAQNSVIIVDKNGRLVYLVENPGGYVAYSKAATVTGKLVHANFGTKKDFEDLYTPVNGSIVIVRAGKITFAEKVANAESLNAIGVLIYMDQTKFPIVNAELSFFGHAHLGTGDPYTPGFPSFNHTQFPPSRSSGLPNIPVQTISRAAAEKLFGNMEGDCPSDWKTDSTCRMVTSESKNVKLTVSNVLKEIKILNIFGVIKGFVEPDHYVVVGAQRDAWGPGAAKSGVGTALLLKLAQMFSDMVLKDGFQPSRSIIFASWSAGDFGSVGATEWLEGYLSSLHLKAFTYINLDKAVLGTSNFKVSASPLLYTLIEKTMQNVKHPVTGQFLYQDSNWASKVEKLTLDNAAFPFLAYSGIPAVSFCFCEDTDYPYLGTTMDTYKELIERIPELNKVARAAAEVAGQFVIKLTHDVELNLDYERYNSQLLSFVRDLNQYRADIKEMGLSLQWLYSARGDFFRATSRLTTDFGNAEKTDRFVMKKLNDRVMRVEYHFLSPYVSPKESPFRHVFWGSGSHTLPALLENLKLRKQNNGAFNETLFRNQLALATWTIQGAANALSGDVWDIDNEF

B2: CD98hc.04.054 (2+1 bispecific antibody) (bispecific antibody)
heavy 1: EVRLLESGGGLVQPGGSLRLSCAASGFTFSNYAMGWVRQAPGKGLEWVSAISGSGGSTYYADSVKGRFTTSRDDSKNALYLQMNSLRAEDTAVYYCARGGPGWYAADVWGQGTTVTVSSASTKGPSVFPLAPSSKSTSGGTAALGCLVKDYFPEPVTVSWNSGALTSGVHTFPAVLQSSGLYSLSSVVTVPSSSLGTQTYICNVNHKPSNTKVDKKV[here human IgG1 Fc with changes without letters]GGGGSGGGGSGGGGSQVQLQQSAAELARPGASVKMSCETSGYTFTRYTMNWVKQRPGQGLDWIGYINPSSGYAEYNQKFRGKTTLTADKSSSTAYIQLNSLTSEDSAVYYCVRYDGNYVYWGQGTTLTVSSGGSEGKSSGSGSESKSTGGSDIVMTQSQKFMSTSFGDRVDITCKASQNVGSAVAWYQQKPGQSPKLLIYSASNRYTGVPDRFTGSGSGTDFTLTINNMQSADLADYFCQQYNFYPLTFGAGTKLDLK
heavy 2: EVRLLESGGGLVQPGGSLRLSCAASGFTFSNYAMGWVRQAPGKGLEWVSAISGSGGSTYYADSVKGRFTTSRDDSKNALYLQMNSLRAEDTAVYYCARGGPGWYAADVWGQGTTVTVSS[here human IgG1 constant region with changes without letters]
light: DIQMTQSPSSLSASVGDRVTITCRASQSISSYLNWYQQKPGKAPKLLIYAASSLQSGVPSRFSGSGSGTDFTLTISSLQPEDFATYYCQQADLPAFAFGGGTKVEIKRTVAAPSVFIFPPSDEQLKSGTASVVCLLNNFYPREAKVQWKVDNALQSGNSQESVTEQDSKDSTYSLSSTLTLSKADYEKHKVYACEVTHQGLSSPVTKSFNRGEC
ELISA fold-change relative to isotype hIgG (huCD98hc ECD Avi-His): 25 | ELISA fold-change relative to isotype hIgG (Cyno CD98hc ECD Avi-His): 30.7 | ELISA fold-change relative to isotype hIgG (muCD98hc ECD Avi-His): 1.4 | ELISA fold-change relative to isotype hIgG [1]: 1.2

B3: CD98hc.04.064 (2+1 bispecific antibody) (bispecific antibody)
heavy 1: EVRLLESGGGLVQPGGSLRLSCAASGFTFSNYAMGWVRQAPGKGLEWVSAISGSGGSTYYADSVKGRFTTSRDDSKNALYLQMNSLRAEDTAVYYCARGGPGWYAADVWGQGTTVTVSSASTKGPSVFPLAPSSKSTSGGTAALGCLVKDYFPEPVTVSWNSGALTSGVHTFPAVLQSSGLYSLSSVVTVPSSSLGTQTYICNVNHKPSNTKVDKKV[here human IgG1 Fc with changes without letters]GGGGSGGGGSGGGGSQVQLQQPGAELVRPGASVKLSCKASGYTFTSYWMNWVRQRPGQGLEWIGLIDPSDSETHYNQMFKDRATLTVDKSSSTAYMQLSSLTSADPAVYYCARASYGKGYFDYWGQGTTLTVSSGGSEGKSSGSGSESKSTGGSDIVMTQSPSSLAMSVGQKVTMSCKSSQSLLNNINQKNYLAWYQQKPGQSPKLLVYFASTRESGVPDRFIGSGSGTDFTLTINTVQAEDLADYFCQQHYSSPFTFGGGTKLEIK
heavy 2: EVRLLESGGGLVQPGGSLRLSCAASGFTFSNYAMGWVRQAPGKGLEWVSAISGSGGSTYYADSVKGRFTTSRDDSKNALYLQMNSLRAEDTAVYYCARGGPGWYAADVWGQGTTVTVSS[here human IgG1 constant region with changes without letters]
light: B2 light
notes: also called mouse CD98hc.04.064
ELISA fold-change relative to isotype hIgG (huCD98hc ECD Avi-His): 26.5 | ELISA fold-change relative to isotype hIgG (Cyno CD98hc ECD Avi-His): 17.3 | ELISA fold-change relative to isotype hIgG (muCD98hc ECD Avi-His): 1.1 | ELISA fold-change relative to isotype hIgG [1]: 1.1

Next, values leading:

ELISA fold-change relative to isotype hIgG (huCD98hc ECD Avi-His): 16.2 | ELISA fold-change relative to isotype hIgG (Cyno CD98hc ECD Avi-His): 17.2 | ELISA fold-change relative to isotype hIgG (muCD98hc ECD Avi-His): 1.1 | ELISA fold-change relative to isotype hIgG [1]: 1.1
B1: CD98hc.04.046 (2+1 bispecific antibody) (bispecific antibody)
heavy 1: EVRLLESGGGLVQPGGSLRLSCAASGFTFSNYAMGWVRQAPGKGLEWVSAISGSGGSTYYADSVKGRFTTSRDDSKNALYLQMNSLRAEDTAVYYCARGGPGWYAADVWGQGTTVTVSSASTKGPSVFPLAPSSKSTSGGTAALGCLVKDYFPEPVTVSWNSGALTSGVHTFPAVLQSSGLYSLSSVVTVPSSSLGTQTYICNVNHKPSNTKVDKKV[here human IgG1 Fc with changes without letters]GGGGSGGGGSGGGGSQIQLVQSGPVLKKPGETVKISCKASGYTFTNFGMNWVKQAPGKGLKWMGWIDTYTREPTYVDDFKGRFAFSLETSVTTAYLQINDLKNEDSATYFCARGESHWYFDVWGAGTTVTVSSGGSEGKSSGSGSESKSTGGSQIVLTQSPAIMSASLGERVTMTCIVSSSVSSSYLYWYQQKPGSSPKLWIYSTSILASGVPGRFSGSGSGTSYSLTISSMEAEDAATYYCHQYHRSPPTFGGGTKLEIK
heavy 2: EVRLLESGGGLVQPGGSLRLSCAASGFTFSNYAMGWVRQAPGKGLEWVSAISGSGGSTYYADSVKGRFTTSRDDSKNALYLQMNSLRAEDTAVYYCARGGPGWYAADVWGQGTTVTVSS[here human IgG1 constant region with changes without letters]
light: B2 light

ELISA fold-change relative to isotype hIgG (huCD98hc ECD Avi-His): 11.1 | ELISA fold-change relative to isotype hIgG (Cyno CD98hc ECD Avi-His): 9.1 | ELISA fold-change relative to isotype hIgG (muCD98hc ECD Avi-His): 1.2 | ELISA fold-change relative to isotype hIgG [1]: 1.1
B4: CD98hc.04.063 (2+1 bispecific antibody) (bispecific antibody)
heavy 1: EVRLLESGGGLVQPGGSLRLSCAASGFTFSNYAMGWVRQAPGKGLEWVSAISGSGGSTYYADSVKGRFTTSRDDSKNALYLQMNSLRAEDTAVYYCARGGPGWYAADVWGQGTTVTVSSASTKGPSVFPLAPSSKSTSGGTAALGCLVKDYFPEPVTVSWNSGALTSGVHTFPAVLQSSGLYSLSSVVTVPSSSLGTQTYICNVNHKPSNTKVDKKV[here human IgG1 Fc with changes without letters]GGGGSGGGGSGGGGSEVKLEESGGGLVQPGGSMILSCVASGFTFSNSWMNWVRQSPEKGLEWVAEIRLRSNNYATHYAESVKGRFTISRDDSKSTVYLQMNNLRAEDTGIYYCSRGDPGAYWGQGTLVTVSAGGSEGKSSGSGSESKSTGGSDIQMTQSSSYLSVSLGNRVTITCKASDHIKNWLAWFQQKPGNAPRLLISGATILETGVPSRFSGSGSGKDYTLSITSLQTEDVATYYCQQYWSTPYTFGGGTKLEIK
heavy 2: EVRLLESGGGLVQPGGSLRLSCAASGFTFSNYAMGWVRQAPGKGLEWVSAISGSGGSTYYADSVKGRFTTSRDDSKNALYLQMNSLRAEDTAVYYCARGGPGWYAADVWGQGTTVTVSS[here human IgG1 constant region with changes without letters]
light: B2 light
